The target in assay [1] is GFP-WT CXCR4 (wild-type human CXCR4 with an N-terminal GFP fusion) (human) (UniProt P61073). Briefly: co-IP; as a1, but cells without SDF-1/CXCL12; anti-GFP IP, blot for FLAG-β-Arrestin 2.
The target in assay [2] is GFP-WHIM CXCR4 (WHIM R334X mutant CXCR4 lacking the 19 carboxy-terminal residues, with an N-terminal GFP fusion) (human) (UniProt P61073). Described as above.
Assay [3] has as its target GFP-WT CXCR4 (wild-type human CXCR4 with an N-terminal GFP fusion) (human) (UniProt P61073). The assay can be described thus: co-IP; HeLa cells with SDF-1/CXCL12 (25 ng/ml, 37°C) for 5 or 10 min; lysis in 1% Triton X-100, 150 mM NaCl, 50 mM Tris-HCl pH 7.5; anti-GFP IP of GFP-CXCR4, blot with anti-FLAG for β-Arrestin 2.
For assay [4], the target named is GFP-WHIM CXCR4 (WHIM R334X mutant CXCR4 lacking the 19 carboxy-terminal residues, with an N-terminal GFP fusion) (human) (UniProt P61073). The description is as above.
The target is the same in assay [5]. The assay can be described thus: condition: only 10 min with SDF-1/CXCL12 (25 ng/ml); co-IP; HeLa cells with SDF-1/CXCL12 (25 ng/ml, 37°C) for 5 or 10 min; lysis in 1% Triton X-100, 150 mM NaCl, 50 mM Tris-HCl pH 7.5; anti-GFP IP of GFP-CXCR4, blot with anti-FLAG for β-Arrestin 2.
For assay [6] the target is unchanged. Briefly: co-IP; as a1, but cells with SDF-1/CXCL12 (25 ng/ml, 37°C) for 30 min before lysis; anti-GFP IP, blot for FLAG-β-Arrestin 2.
For assay [7], the target named is GFP-WT CXCR4 (wild-type human CXCR4 with an N-terminal GFP fusion) (human) (UniProt P61073). The assay can be described thus: co-IP; HeLa cells with SDF-1/CXCL12 (25 ng/ml, 37°C; 10 min in the text, 30 min in the legend); anti-GFP IP of GFP-CXCR4, blot for endogenous Grk6 or Grk3.
For assay [8], the target named is GFP-WHIM CXCR4 (WHIM R334X mutant CXCR4 lacking the 19 carboxy-terminal residues, with an N-terminal GFP fusion) (human) (UniProt P61073). The description is as above.
The target in assay [9] is GFP-WT CXCR4 (wild-type human CXCR4 with an N-terminal GFP fusion) (human) (UniProt P61073). The assay can be described thus: co-IP; HeLa cells with SDF-1/CXCL12 (25 ng/ml, 37°C) for 10 and 30 min; anti-GFP IP of GFP-CXCR4, blot with anti-FLAG for β-Arrestin 1.
Assay [10] has as its target GFP-WHIM CXCR4 (WHIM R334X mutant CXCR4 lacking the 19 carboxy-terminal residues, with an N-terminal GFP fusion) (human) (UniProt P61073). Described as above.

By UniProt entry, the sequences of proteins in these tests, tags left out. Where a name states a change or a piece, a line headed by the entry shows the natural chain unless it says otherwise. Residues count along the entry.
UniProt P61073: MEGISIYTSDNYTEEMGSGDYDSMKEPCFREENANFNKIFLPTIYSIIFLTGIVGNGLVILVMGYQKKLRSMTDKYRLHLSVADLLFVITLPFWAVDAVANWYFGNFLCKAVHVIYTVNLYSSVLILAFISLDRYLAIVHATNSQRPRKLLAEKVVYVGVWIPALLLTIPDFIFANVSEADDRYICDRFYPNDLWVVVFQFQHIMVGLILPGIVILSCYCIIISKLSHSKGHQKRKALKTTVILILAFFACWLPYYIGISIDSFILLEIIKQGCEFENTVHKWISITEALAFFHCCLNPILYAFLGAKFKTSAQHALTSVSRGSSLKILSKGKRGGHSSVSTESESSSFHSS
GFP-WHIM CXCR4 (WHIM R334X mutant CXCR4 lacking the 19 carboxy-terminal residues, with an N-terminal GFP fusion): residues 1-333 of P61073
UniProt P29067: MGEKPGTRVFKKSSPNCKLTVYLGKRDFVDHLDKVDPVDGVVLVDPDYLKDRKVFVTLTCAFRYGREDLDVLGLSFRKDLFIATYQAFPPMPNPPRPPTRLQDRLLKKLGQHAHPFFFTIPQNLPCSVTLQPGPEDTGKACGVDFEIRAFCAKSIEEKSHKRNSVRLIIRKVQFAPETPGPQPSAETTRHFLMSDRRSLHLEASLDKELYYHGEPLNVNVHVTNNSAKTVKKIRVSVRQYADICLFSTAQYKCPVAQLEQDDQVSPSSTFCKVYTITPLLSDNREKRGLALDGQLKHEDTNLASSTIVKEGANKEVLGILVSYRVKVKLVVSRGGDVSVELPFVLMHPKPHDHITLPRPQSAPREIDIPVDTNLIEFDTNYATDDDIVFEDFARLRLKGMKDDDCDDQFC
UniProt P35626: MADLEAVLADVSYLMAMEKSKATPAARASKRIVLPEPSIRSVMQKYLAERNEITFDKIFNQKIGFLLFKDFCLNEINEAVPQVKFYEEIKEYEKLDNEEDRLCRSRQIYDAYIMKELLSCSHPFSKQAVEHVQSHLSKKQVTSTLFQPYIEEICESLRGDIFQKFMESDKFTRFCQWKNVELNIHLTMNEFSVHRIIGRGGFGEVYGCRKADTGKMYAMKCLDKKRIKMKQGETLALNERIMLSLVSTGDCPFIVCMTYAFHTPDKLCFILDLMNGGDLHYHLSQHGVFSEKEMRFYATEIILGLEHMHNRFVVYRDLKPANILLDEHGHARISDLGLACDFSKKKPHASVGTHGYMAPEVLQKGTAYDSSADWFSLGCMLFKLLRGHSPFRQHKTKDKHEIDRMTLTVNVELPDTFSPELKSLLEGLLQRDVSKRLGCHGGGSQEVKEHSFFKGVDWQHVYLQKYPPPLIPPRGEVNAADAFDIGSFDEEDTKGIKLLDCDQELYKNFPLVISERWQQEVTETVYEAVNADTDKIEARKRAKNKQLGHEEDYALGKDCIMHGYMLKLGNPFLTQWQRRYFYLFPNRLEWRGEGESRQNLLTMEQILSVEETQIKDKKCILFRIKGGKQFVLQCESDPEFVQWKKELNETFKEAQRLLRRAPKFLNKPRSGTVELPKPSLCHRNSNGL
UniProt P29066: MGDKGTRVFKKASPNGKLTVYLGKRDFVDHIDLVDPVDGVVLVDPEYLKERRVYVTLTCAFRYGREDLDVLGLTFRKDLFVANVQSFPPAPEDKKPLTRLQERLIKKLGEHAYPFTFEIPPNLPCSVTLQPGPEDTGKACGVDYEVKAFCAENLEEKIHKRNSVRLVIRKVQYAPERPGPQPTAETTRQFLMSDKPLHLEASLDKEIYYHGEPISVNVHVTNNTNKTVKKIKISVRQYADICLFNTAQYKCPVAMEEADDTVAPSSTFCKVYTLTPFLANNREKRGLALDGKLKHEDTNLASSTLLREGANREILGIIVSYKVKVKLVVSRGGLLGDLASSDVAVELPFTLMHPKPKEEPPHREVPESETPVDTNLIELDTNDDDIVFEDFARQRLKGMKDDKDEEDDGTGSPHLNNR
UniProt P43250: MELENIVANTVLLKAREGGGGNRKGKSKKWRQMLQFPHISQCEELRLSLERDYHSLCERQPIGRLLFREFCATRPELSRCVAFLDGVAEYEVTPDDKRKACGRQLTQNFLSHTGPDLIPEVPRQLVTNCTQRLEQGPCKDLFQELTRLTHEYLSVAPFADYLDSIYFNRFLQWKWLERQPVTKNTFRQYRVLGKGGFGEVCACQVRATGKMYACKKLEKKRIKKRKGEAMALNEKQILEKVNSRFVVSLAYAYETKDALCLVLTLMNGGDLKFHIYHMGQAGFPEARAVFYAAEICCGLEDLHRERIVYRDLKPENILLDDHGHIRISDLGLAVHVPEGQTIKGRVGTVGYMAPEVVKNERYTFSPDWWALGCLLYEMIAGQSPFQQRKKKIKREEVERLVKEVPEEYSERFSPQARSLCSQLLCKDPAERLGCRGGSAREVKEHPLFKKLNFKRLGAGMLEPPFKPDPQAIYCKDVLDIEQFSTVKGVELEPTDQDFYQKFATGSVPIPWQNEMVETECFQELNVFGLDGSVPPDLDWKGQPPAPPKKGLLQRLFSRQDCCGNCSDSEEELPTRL

These are yes or no findings as the source states them, for the method shown. In cells and extracts the contact can be indirect. Some results given as binding are weak or reduced against the parent protein; the word gives no strength.

Take “FLAG-tagged β-Arrestin 2 (from UniProt P29067 1-410)”: the binding entry in assay [1] is on record as “no binding (condition: cells without SDF-1/CXCL12)”; in [2] it was “no binding (condition: cells without SDF-1/CXCL12)”; in assay [3], “binds”; in assay [4] it was “binds weakly”; in [5], “no binding”; in assay [6] it was “binds”.

As for “Grk3 (G protein-coupled receptor kinase 3) (from UniProt P35626 1-688) (enzyme)”, the binding entry in [7] and in [8] was “binds” in each case.

As for “FLAG-tagged β-Arrestin 1 (from UniProt P29066 1-418)”, the binding entry in assay [9] and in assay [10] was “binds” in each case.

On to “Grk6 (G protein-coupled receptor kinase 6) (from UniProt P43250 1-576) (enzyme)”, for which the binding result was “binds” in [7] and “no binding” in assay [8].

The values above are taken from PMC2779657.
